According to PubChem BioAssay AID1240 (Sanford-Burnham Center for Chemical Genomics, 2008):
Out of some 50,000 compounds screened, about 800 (1.6%) showed an effect of 50% or more. The list shows a part of the results.

These compounds were tested against Bcl-2-like protein 10 (Homo sapiens) (UniProt Q9HD36) (assay: TR3 peptide-Bcl-B binding displacers, biochemical primary FP assay, phenotype converters (AID 1240;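 also: 0% = Bcl-B with tracer peptide and DMSO and 100% = tracer peptide lacking Bcl-B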)). Details: GST-Bcl-B / FITC-TR3 peptide fluorescence polarization; stronger effect = higher value; compound at 3.75 mg/L.
UniProt Q9HD36, sequence (Q9HD36 whole entry, looked up): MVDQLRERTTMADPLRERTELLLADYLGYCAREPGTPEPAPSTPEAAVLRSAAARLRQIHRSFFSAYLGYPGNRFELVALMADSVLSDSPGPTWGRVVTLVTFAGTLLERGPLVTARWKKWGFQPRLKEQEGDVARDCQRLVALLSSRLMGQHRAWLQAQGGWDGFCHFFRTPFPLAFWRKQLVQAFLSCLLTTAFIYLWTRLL

SMILES	displacement [%]
CCOc1ccc(NC(=O)/C(=C/c2ccccc2)c2ccccc2)cc1	10.5
Cc1ccc(S(N)(=O)=O)cc1NC(=O)CCCOc1ccc(Cl)cc1Cl	1.2
O=C1c2ccc([N+](=O)[O-])cc2C(=O)C1c1ccc2ccccc2n1 (stereo not given)	7.6
COc1ccc(N(CC(=O)Nc2ccc(C)c(C)c2)S(=O)(=O)c2ccc(C)cc2)cc1	-6.2
Cc1ccc(NC(=O)c2oc3ccc(Cl)cc3c2C)c([N+](=O)[O-])c1	-4.5
COc1ccc(OC)c(/C=N/NC(=O)c2ccc[n+](Cc3ccccc3)c2)c1	0
COc1ccc(C2C(C(C)=O)=C(O)C(=O)N2CCN(C)C)c(OC)c1 (stereo not given)	-4.8
O=[N+]([O-])c1cccc(-c2nnc(-c3ccc(Br)o3)o2)c1	-11.6
CC(C)(C)CC(C)(C)NC(=O)CSc1nc2ccccc2s1	-21.6
COc1cccc(C2NC(=O)NC(C)=C2C(=O)Nc2ccccc2Cl)c1 (stereo not given)	-15.9
Cc1ccc(NC(=O)C2CC(=O)N(c3ccc(Br)cc3)C2)cc1C (stereo not given)	-3.7
COC(=O)C1=C(C)N(Cc2ccccc2)C(=O)/C1=C\c1ccc(C(=O)O)cc1	5.6
O=S(N1CCCCC1)C12CC3CC(CC(C3)C1)C2 (stereo not given)	4.7
CC1=C(C(=O)Nc2cccc(C)c2)C(c2cc(Br)ccc2O)NC(=O)N1 (stereo not given)	6.5
Cc1ccc(OCC(=O)NCc2ccc3c(c2)OCO3)cc1	11
O=C(NCc1ccc(Cl)c(Cl)c1)c1cc2ccccc2oc1=O	10.5
O=c1[nH]c(=O)n(Cc2ccccc2)cc1I	3.3
COc1cc2c(cc1NC(=O)c1c(-c3c(F)cccc3Cl)noc1C)oc1ccccc12	-18.9
Cc1cccc(NC(=O)c2cnccn2)c1	30.9
CCCN(CCC)CCCNC(=O)C(=O)NCc1ccco1	14.5
Cc1cc(C(=O)Nc2ccccn2)ccc1[N+](=O)[O-]	0.7
COCCOC(=O)C1=C(C)NC2=C(C(=O)CCC2)C1c1ccc(OCc2ccccc2)c(OC)c1 (stereo not given)	-0.5

SMILES	displacement [%]
CCOc1ccccc1N(CC(=O)NC(C)c1ccccc1)S(=O)(=O)c1ccccc1 (stereo not given)	1.3
O=C(/C=C/c1ccc(F)cc1)Nc1cccc(Br)c1	23
COc1ccc(/C=N/N2C(=O)c3ccccc3NC2c2ccc(OC)cc2)cc1 (stereo not given)	-7.7
CCOc1ccc(/C=N/N2CCN(Cc3ccc(Cl)cc3)CC2)cc1OC	10.1
COc1ccccc1CC(=O)Nc1cc([N+](=O)[O-])ccc1OC	4.4
COC(=O)C1=C(C(=O)OC)SC(=C2C(=S)C(C)(C)N(C(=O)CN3C(=O)CCC3=O)c3ccccc32)S1	-11.9
COc1ccc(-c2nnc(NC(=O)c3ccc(C)cc3)s2)cc1OC	1.9
CCC(=O)N1c2ccccc2NC2=C(C(=O)CC(c3ccccc3)C2)C1c1ccc(OC)cc1 (stereo not given)	2.3
CCOC(=O)c1[nH]c(C)c(C(=O)N/N=C/c2ccc(-c3ccc(Cl)cc3)o2)c1C	7.2
Cc1nc(-c2ccccc2)nc(N/N=C/c2c(F)c(F)c(F)c(F)c2F)c1C	-7.1
COc1ccc2c(c1OC)C(=O)OC2Nc1cccc([N+](=O)[O-])c1 (stereo not given)	1
NC(=O)/C=C\C(=O)Nc1cccc(C(F)(F)F)c1	-2.5
CCOC(=O)c1ccccc1NC(=O)Cc1cccs1	10.2
CCC(C)C1C(C#N)=C(N)Oc2n[nH]c(-c3ccccc3)c21 (stereo not given)	-7.8
Cc1cc(Cl)ccc1OCCN1CCOCC1	-1.9
O=C(NCc1cccnc1)C(=O)N1CCCCC1	-1.4
CCN1C(=O)NC(c2ccc(Br)cc2)C(C(=O)OCCOC)=C1C (stereo not given)	-7
CCOC(=O)c1c(NC(=O)COc2ccc(Cl)cc2)sc2c1CCN(C(=O)OCC)C2	-1.7
CCOc1cc(OCC)cc(C(=O)Nc2cccc(Cl)c2Cl)c1	8.5
Cc1ccc2oc(-c3ccc(NC(=O)c4ccc(Br)o4)cc3)nc2c1	42
c1ccc2c(-c3csc(N4CCOCC4)n3)cccc2c1	13.4
Cc1ccc(N2C(=O)S/C(=C\c3ccc(F)cc3)C2=O)cc1	-5.5

SMILES	displacement [%]
COc1ccc(NC(=O)c2ccc(Cl)c(Cl)c2)cc1OC	2.2
Cc1c(C(=O)Nc2ccc(Cl)cn2)cccc1[N+](=O)[O-]	1.9
NS(=O)(=O)c1ccc(-c2ccc(/C=N/Nc3ccccc3)o2)cc1	-1
O=C(CSc1nsc(SCC(=O)Nc2ccc(Cl)c(Cl)c2)n1)Nc1ccc(Cl)c(Cl)c1	8.7
CC1(C)CC(=O)C(C(C2=C(O)CC(C)(C)CC2=O)c2cccs2)C(=O)C1 (stereo not given)	-17.9
COc1ccc(Cl)cc1S(=O)(=O)N1CCC(Cc2ccccc2)CC1	10.3
CCOC(=O)c1sc(NC(=O)/C=C/c2ccc(F)cc2)c(C(=O)OCC)c1C	10.6
CC1=C(C(=O)OCCc2ccccc2)C(c2cccc([N+](=O)[O-])c2)C2=C(CCCC2=O)N1 (stereo not given)	13.4
Cc1ccc(-c2csc(NC(=O)c3cccc([N+](=O)[O-])c3)n2)cc1	3.2
COCc1cc(C)nc(N/N=C/c2ccc(Cl)cc2Cl)c1C#N	2.7
Cc1ccc2nc(Sc3ccccc3)c(C#N)c(=O)n2c1	4.5
COc1cc(C2Nc3ccccc3C(=O)N2c2ccc(C)cc2)cc(OC)c1OC (stereo not given)	-4.5
NC(=O)NC(c1ccccc1)c1ccc(Br)cc1 (stereo not given)	2.2
CCOC(=O)CCNC(=O)/C=C/c1ccco1	1.8
O=[N+]([O-])c1ccccc1S(=O)(=O)Nc1ccc(S(=O)(=O)Nc2nccs2)cc1	-1.1
COc1ccc2c(C)c(C)c(=O)oc2c1C	8.7
Cc1ccccc1OCCOc1ccccc1/C=c1\sc2nc3ccccc3n2c1=O	1.7
COC(=O)c1cc(NC(=O)C(C)Oc2ccc(Cl)cc2C)cc(C(=O)OC)c1 (stereo not given)	-11
Cc1ccc(Cl)cc1NC(=O)CSc1nnc(SCC(=O)Nc2cc(Cl)ccc2C)s1	7.6
Cn1cnc2cc(Nc3nnc(-c4ccc(Cl)cc4)c4ccccc34)ccc21	4.6
CCC(CC)C(=O)Nc1ccccc1[N+](=O)[O-]	-6.9
CCN(CC)S(=O)(=O)c1ccc(NC(=O)c2cccc(C)c2)cc1	-2.1

SMILES	displacement [%]
CC(C)(C)c1ccc(OCCN2CCCC2)cc1	4.2
O=c1c2ccccc2c(-c2ccccc2)nn1-c1cc([N+](=O)[O-])ccc1N1CCOCC1	0.1
CCOc1ccccc1NC(=O)CN(c1ccc(Oc2ccccc2)cc1)S(C)(=O)=O	3.2
O=C(CSc1nc2ccccc2[nH]1)NC1CCCC1	-7.7
O=C(Nc1ccc(F)cc1)N1CCc2ccccc2C1	0.2
CCCCOc1ccc(S(=O)(=O)NCc2ccco2)cc1	8.4
CC(C)(C)NCCOc1cc(Cl)ccc1Cl	-14.3
CC(=O)Nc1ccc(C(C)(C)C)cc1[N+](=O)[O-]	-4.8
CN1C(=O)/C(=C\c2cn(Cc3ccc(Cl)cc3Cl)nc2-c2ccccc2)SC1=S	6.1
CCc1cc2c(C)c(CC)c(=O)oc2cc1OC	3.4
O=C1NC2=C(C(=O)N(Cc3ccccc3)C2)C(c2ccccc2)N1 (stereo not given)	-11.3
COC(=O)CN1C(CCN2CCOCC2)=Nc2ccc(Br)cc2C1c1ccccc1 (stereo not given)	-3.8
Cc1ccc2c(c1)C(c1ccccc1[N+](=O)[O-])CC(=O)N2 (stereo not given)	-3.4
Brc1ccccc1OCCCOc1cccc2cccnc12	-4.3
COc1ccc(OC)c(N2Cc3ccc(OC)c(OC)c3C2=O)c1	-10.9
CCCC(=O)N1CCN(c2ccc(F)cc2)CC1	6.5
NC(=O)c1c(NC(=O)c2ccc(Br)cc2)sc2c1CCCCCC2	4.7
CC(C)C(c1ccc(O)cc1)c1ccc(O)cc1	9.8
CNC(=S)N(CCc1ccccc1)C1CC(=O)N(c2ccc(Br)cc2)C1=O (stereo not given)	-4.7
O=C(Nc1ccc(F)cc1F)c1ccc(Cl)cc1	-6.4
Cc1cccc(OCC(=O)N/N=C/c2ccncc2)c1	8.9
N#C/C(=C\c1cc2c(cc1[N+](=O)[O-])OCO2)C(=O)Nc1cccc(Br)c1	-2.8

SMILES	displacement [%]
O=C1OC(c2ccc(Br)cc2)=C/C1=C/c1cccs1	19.6
Clc1ccccc1C1Nc2cccc3cccc(c23)N1	15.6
NS(=O)(=O)c1ccc(-c2ccc(/C=C3/SC(=S)N(C4CCCCC4)C3=O)o2)cc1	19.1
CC1=NCCN1S(=O)(=O)c1ccc(Cl)cc1	8.9
Cc1ccc(CNC(=O)Cc2ccc(Br)cc2)cc1	12.5
C=CC(=O)Nc1ccc2c(c1Oc1ccc(C(C)(C)C)cc1)C(=O)c1ccccc1C2=O	8.9
CC(=O)Nc1ccc(NC(=O)c2cc(-c3ccccc3)nc3ccccc23)cc1	4.9
Cc1ccc(/C(O)=C2/C(=O)C(=O)N(CCCCCC(=O)O)C2c2ccccc2F)cc1 (stereo not given)	-3.3
O=C1C(=O)N(c2cccc(Br)c2)C(c2ccccc2)/C1=C(/O)c1ccccc1 (stereo not given)	12
Brc1ccc2[nH]cc(-c3nnc4ccc5ccccc5n34)c2c1	-3
Fc1ccc(-c2cc(-c3ccccc3)nc(-n3cccn3)n2)cc1	-5.1
O=C(CCN1C(=O)/C(=C/c2ccccc2)SC1=S)Nc1ncc(Cc2ccccc2Cl)s1	8.5
Cc1ccccc1NC(=O)c1c(NC(=S)Nc2ccccc2)sc2c1CCCCC2	-17.3
CCOc1ccc(NC(=S)NC(=O)/C=C/c2ccc(OC)c(OC)c2)c([N+](=O)[O-])c1	7.4
CC1(C)CC(=O)C=C(NCc2ccncc2)C1	-4.7
Cc1c(Cl)cccc1N1C(=O)c2ccccc2C1=O	7.1
Cc1ccc(-c2nc(N/N=C/c3ccccc3)c3ccccc3n2)cc1	6.7
Cc1ccccc1NC(=O)C(=O)NCCO	6.2
CN(C)CCCN1C(=O)CSC1c1ccc(Cl)c(Cl)c1 (stereo not given)	2.9
CCOc1cccc2c1N(C(=O)c1ccc(C)cc1)C(C)(C)C(=S)C2=C1SC(C(=O)OC)=C(C(=O)OC)S1	-1
CCCOc1ccc(N2C(=O)CC(NCc3ccccc3)C2=O)cc1 (stereo not given)	-5.8
O=C(COc1ccccc1)NNC(=O)c1ccc(F)cc1	-12.1
